In paper PMC10020501:
These are yes or no findings as the source states them, for the method shown. Binding seen in cells or lysates may run through a third protein. Some results given as binding are weak or reduced against the parent protein; the word gives no strength. Where a sequence is shown, tags or fusion partners need not be part of it.

T1: Flag-tagged TBK1 WT (TANK-binding kinase 1) (human) (UniProt Q9UHD2)
T1 sequence: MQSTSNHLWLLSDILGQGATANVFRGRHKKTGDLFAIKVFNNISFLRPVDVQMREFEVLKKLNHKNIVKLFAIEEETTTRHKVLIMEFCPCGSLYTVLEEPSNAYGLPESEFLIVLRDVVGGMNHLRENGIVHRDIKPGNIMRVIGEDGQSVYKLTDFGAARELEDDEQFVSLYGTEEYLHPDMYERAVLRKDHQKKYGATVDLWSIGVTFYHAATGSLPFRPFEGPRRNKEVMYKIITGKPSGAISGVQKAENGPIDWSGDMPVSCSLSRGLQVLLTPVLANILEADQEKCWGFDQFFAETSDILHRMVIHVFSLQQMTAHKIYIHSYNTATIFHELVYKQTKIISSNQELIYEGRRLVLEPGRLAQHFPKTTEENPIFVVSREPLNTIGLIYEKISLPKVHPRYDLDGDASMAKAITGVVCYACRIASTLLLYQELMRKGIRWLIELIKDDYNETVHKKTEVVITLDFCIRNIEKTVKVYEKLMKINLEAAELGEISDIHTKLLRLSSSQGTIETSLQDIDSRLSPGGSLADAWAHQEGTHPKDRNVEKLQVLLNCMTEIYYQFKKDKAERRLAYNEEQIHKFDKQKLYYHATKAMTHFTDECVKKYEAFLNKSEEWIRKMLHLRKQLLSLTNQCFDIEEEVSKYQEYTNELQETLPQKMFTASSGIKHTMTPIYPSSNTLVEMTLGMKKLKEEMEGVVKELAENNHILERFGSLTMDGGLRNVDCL

T2: Flag-tagged TBK1 L704A (human) (UniProt Q9UHD2)
T2 sequence: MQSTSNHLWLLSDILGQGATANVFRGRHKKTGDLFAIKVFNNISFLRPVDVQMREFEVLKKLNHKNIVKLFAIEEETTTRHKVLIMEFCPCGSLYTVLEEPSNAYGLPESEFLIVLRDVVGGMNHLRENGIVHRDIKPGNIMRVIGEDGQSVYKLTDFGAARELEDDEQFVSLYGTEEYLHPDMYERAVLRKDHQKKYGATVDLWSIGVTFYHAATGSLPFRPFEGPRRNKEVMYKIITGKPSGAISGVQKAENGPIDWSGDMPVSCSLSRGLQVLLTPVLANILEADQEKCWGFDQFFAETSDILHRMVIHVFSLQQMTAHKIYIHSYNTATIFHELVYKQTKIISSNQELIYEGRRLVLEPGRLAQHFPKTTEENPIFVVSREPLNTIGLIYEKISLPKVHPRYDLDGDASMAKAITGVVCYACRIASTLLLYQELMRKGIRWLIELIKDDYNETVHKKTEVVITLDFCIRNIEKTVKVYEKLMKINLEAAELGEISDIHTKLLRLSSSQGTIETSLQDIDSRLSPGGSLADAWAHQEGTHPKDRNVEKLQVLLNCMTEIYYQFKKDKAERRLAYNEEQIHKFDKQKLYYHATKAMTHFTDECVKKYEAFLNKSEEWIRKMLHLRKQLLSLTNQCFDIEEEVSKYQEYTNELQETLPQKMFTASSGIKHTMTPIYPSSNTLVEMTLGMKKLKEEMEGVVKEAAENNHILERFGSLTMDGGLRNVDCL

T3: Flag-tagged TBK1 K694E (human) (UniProt Q9UHD2)
T3 sequence: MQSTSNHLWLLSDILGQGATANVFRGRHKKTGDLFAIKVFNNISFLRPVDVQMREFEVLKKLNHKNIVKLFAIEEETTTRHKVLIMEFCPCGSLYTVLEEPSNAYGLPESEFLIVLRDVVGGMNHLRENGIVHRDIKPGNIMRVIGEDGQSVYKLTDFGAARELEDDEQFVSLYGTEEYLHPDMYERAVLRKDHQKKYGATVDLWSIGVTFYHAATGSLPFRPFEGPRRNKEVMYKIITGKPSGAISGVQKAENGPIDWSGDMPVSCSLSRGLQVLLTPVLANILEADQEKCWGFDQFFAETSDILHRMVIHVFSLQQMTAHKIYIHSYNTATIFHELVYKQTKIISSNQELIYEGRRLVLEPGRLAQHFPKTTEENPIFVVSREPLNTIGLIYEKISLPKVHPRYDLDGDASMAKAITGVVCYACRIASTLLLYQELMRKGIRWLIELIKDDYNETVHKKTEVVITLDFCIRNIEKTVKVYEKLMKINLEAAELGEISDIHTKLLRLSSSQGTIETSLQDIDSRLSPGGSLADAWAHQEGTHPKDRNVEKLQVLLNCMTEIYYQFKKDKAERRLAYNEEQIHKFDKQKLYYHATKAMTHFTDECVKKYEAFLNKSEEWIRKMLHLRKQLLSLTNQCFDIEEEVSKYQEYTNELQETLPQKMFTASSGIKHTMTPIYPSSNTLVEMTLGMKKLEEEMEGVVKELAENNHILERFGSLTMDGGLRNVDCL

T4: Flag-tagged TBK1 L693A (human) (UniProt Q9UHD2)
T4 sequence: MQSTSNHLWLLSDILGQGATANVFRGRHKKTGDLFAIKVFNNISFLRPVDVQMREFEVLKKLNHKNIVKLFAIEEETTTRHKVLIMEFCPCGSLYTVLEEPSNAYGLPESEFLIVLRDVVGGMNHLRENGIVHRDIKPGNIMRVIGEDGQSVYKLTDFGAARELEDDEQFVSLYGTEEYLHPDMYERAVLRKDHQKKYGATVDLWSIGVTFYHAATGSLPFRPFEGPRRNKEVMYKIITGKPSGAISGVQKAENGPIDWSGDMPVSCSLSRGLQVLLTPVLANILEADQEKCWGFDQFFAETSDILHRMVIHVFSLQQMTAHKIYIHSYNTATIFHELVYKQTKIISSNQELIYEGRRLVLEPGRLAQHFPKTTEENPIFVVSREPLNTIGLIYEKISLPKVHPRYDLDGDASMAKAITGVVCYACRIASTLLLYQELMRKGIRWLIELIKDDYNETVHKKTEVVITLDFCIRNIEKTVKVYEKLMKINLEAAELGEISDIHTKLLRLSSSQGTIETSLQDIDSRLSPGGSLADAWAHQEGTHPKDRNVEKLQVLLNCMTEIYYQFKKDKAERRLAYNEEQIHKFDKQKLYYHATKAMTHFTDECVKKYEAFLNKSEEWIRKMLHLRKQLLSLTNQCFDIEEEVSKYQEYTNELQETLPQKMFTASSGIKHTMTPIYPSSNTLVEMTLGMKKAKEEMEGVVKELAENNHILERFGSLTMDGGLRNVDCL


Legend:
Experiment in all cases: co-IP; Flag-tagged TBK1 variants precipitated with anti-Flag M2 magnetic agarose beads from lysates of TBK1-deficient THP1-Dual cells; TAP lysis buffer (100 mM NaCl, 50 mM Tris/HCl, 1.5 mM MgCl2, 5% glycerol, 0.5% IGEPAL CA-630, pH 7.5), 4 h at 4°C; elution with 3× Flag peptide; endogenous partners detected by immunoblot
[1] = molecular target: T1, Flag-tagged TBK1 WT (TANK-binding kinase 1) (human)
[2] = molecular target: T2, Flag-tagged TBK1 L704A (human)
[3] = molecular target: T3, Flag-tagged TBK1 K694E (human)
[4] = molecular target: T4, Flag-tagged TBK1 L693A (human)

binding [1]	binding [2]	binding [3]	binding [4]	Binder
binds	binds	binds	binds	IκB kinase ϵ (IKKϵ), endogenous (enzyme, UniProt Q14164 1-716) MQSTANYLWHTDDLLGQGATASVYKARNKKSGELVAVKVFNTTSYLRPREVQVREFEVLRKLNHQNIVKLFAVEETGGSRQKVLVMEYCSSGSLLSVLESPENAFGLPEDEFLVVLRCVVAGMNHLRENGIVHRDIKPGNIMRLVGEEGQSIYKLTDFGAARELDDDEKFVSVYGTEEYLHPDMYERAVLRKPQQKAFGVTVDLWSIGVTLYHAATGSLPFIPFGGPRRNKEIMYRITTEKPAGAIAGAQRRENGPLEWSYTLPITCQLSLGLQSQLVPILANILEVEQAKCWGFDQFFAETSDILQRVVVHVFSLSQAVLHHIYIHAHNTIAIFQEAVHKQTSVAPRHQEYLFEGHLCVLEPSVSAQHIAHTTASSPLTLFSTAIPKGLAFRDPALDVPKFVPKVDLQADYNTAKGVLGAGYQALRLARALLDGQELMFRGLHWVMEVLQATCRRTLEVARTSLLYLSSSLGTERFSSVAGTPEIQELKAAAELRSRLRTLAEVLSRCSQNITETQESLSSLNRELVKSRDQVHEDRSIQQIQCCLDKMNFIYKQFKKSRMRPGLGYNEEQIHKLDKVNFSHLAKRLLQVFQEECVQKYQASLVTHGKRMRVVHETRNHLRLVGCSVAACNTEAQGVQESLSKLLEELSHQLLQDRAKGAQASPPPIAPYPSPTRKDLLLHMQELCEGMKLLASDLLDNNRIIERLNRVPAPPDV
binds	no binding	no binding	no binding	TRAF family member-associated NF-κB activator (TANK) (protein, UniProt Q92844 1-425) MDKNIGEQLNKAYEAFRQACMDRDSAVKELQQKTENYEQRIREQQEQLSLQQTIIDKLKSQLLLVNSTQDNNYGCVPLLEDSETRKNNLTLDQPQDKVISGIAREKLPKVRRQEVSSPRKETSARSLGSPLLHERGNIEKTFWDLKEEFHKICMLAKAQKDHLSKLNIPDTATETQCSVPIQCTDKTDKQEALFKPQAKDDINRGAPSITSVTPRGLCRDEEDTSFESLSKFNVKFPPMDNDSTFLHSTPERPGILSPATSEAVCQEKFNMEFRDNPGNFVKTEETLFEIQGIDPIASAIQNLKTTDKTKPSNLVNTCIRTTLDRAACLPPGDHNALYVNSFPLLDPSDAPFPSLDSPGKAIRGPQQPIWKPFPNQDSDSVVLSGTDSELHIPRVCEFCQAVFPPSITSRGDFLRHLNSHFNGET
